Out of some 370,000 compounds screened, about 150 (0.041%) were called active. The inconclusive results got no clear call from the source; some entries with a clear call stand among them for comparison. Calls come from the whole dose curve; as a rule, active = well fitted inhibition curve with a large enough effect; inconclusive = small, poorly fitted or top-dose-only effect; inactive = flat fitted curve, though single readings scatter. Potencies of inconclusive entries are left out as doubtful fits.
These compounds were tested against Beta-lactamase (Escherichia coli (strain K12)) (UniProt P00811) (assay: qHTS Inhibitors of AmpC Beta-Lactamase (assay with detergent)). Details: AmpC hydrolysis of nitrocefin, absorbance 480 nm, 0.01% Triton; series mostly up to 114 µM.
Procedure, shortened: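 20 mM phosphate pH 7.0 + 0.01% (detergent screen) or 0.0001% Triton X-100; 5.3 nM AmpC reagent; cpd preinc 15 min RT; nitrocefin (800 uM stock) to start; A480 q20 s × 4 min; Activity was normalised to no-enzyme and no-compound control wells.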
Note: nearly all actives have a fitted effect of over 25% in size.
Potency is the fitted concentration of half-maximal effect; tags give direction and shape of the fitted curve.

Chain of UniProt P00811 (P00811 whole entry, looked up): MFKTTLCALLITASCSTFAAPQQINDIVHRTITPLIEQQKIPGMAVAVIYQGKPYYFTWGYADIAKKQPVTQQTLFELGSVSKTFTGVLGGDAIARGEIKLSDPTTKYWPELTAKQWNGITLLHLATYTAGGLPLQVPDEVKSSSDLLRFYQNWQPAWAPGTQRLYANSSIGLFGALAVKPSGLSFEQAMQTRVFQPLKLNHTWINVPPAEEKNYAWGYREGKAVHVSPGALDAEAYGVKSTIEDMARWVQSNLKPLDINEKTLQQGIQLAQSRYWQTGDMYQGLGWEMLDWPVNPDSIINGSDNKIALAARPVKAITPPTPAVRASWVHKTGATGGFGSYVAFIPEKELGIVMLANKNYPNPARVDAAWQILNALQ

SMILES	Potency
COc1cccc(NC(=O)CN(C)C(=O)c2ccc(-n3cncn3)c([N+](=O)[O-])c2)c1	inconclusive [inhibitor, full curve, poor fit]
COc1cc(CC(=O)Nc2ccc(Cl)c(C(F)(F)F)c2)cc(OC)c1OC	inconclusive [inhibitor, full curve]
c1ccc(OCCOc2ccccc2-c2nnco2)cc1	inconclusive [inhibitor, full curve, poor fit]
Cc1ccc(C(=O)CCC(=O)OCC(=O)Nc2ccc3[nH]c(=O)[nH]c3c2)cc1	inconclusive [inhibitor, full curve, poor fit]
N#Cc1ccccc1NC(=O)C(=O)NCCc1csc(-c2ccc(F)cc2)n1	inactive
COCCn1c(=N)c(S(=O)(=O)c2ccc(F)cc2)cc2c(=O)n3cccc(C)c3nc21	inconclusive [inhibitor, full curve]
Cc1ccc(CCN2C(=O)CCC2(C)C(=O)NCc2cccnc2)cc1 (stereo unspecified)	inconclusive [inhibitor, full curve, poor fit]
O=C1c2ccccc2-c2c1cccc2C(=O)N1CCN(C(=O)c2ccco2)CC1	inconclusive [inhibitor, full curve, poor fit]
Cn1cccc1-c1nc2ccccc2n1Cc1ccccc1	inconclusive [inhibitor, single point]
CC(=O)Nc1ccc2c(c1)ncn2-c1ccc(C)cc1	inactive
O=C(NCCc1ccc(Cl)cc1)C1COc2ccccc2C1 (stereo unspecified)	inactive
Cc1cc(C)c(OCC(=O)OCC(=O)N2CCCc3ccccc32)c(C)c1	inconclusive [inhibitor, full curve, poor fit]
Cc1cccc(CC(=O)Nc2cc(C)c3c(=O)oc4ccccc4c3n2)c1	inconclusive [inhibitor, partial curve]
O=C(Nc1ccccc1Cl)N1C2CCC1CC(O)(c1cccnc1)C2 (stereo unspecified)	inconclusive [inhibitor, single point]
COc1ccccc1C(=O)Nc1ccc2c(c1)OCCO2	inconclusive [inhibitor, full curve, poor fit]
CC(=O)Nc1ccc(S(=O)(=O)N(Cc2ccco2)CC2CCCO2)cc1 (stereo unspecified)	inconclusive [inhibitor, single point]
Cc1c(O)ccc(/C=N/Nc2ncccc2[N+](=O)[O-])c1O	inconclusive [inhibitor, full curve, poor fit]
CCOC(=O)C1=C(N)N(c2ccc(N3CCCCC3)cc2)C(=O)C1	inconclusive [inhibitor, full curve]
O=C(CN1C(=O)NC2(CCCC2)C1=O)Nc1ccccc1F	inconclusive [inhibitor, partial curve, poor fit]
Cc1cccc(NC(=O)c2ccc(S(=O)(=O)N3CCCCC3)cc2)c1	inactive
Cc1nnc2n(c1=O)N=C(c1ccc(Cl)cc1)CS2	inactive

SMILES	Potency
Cc1ccc(S(=O)(=O)N2CCC(C(=O)NCC3CCCO3)CC2)cc1 (stereo unspecified)	inconclusive [inhibitor, single point]
CCOC(=O)/C(=C/C=C1\Sc2cc(OCC)c(OCC)cc2N1CC)C(C)=O	inactive
COc1ccc(CNC(=O)CN(CCC(C)C)S(=O)(=O)c2ccc3c(c2)OCCO3)cc1	inconclusive [inhibitor, full curve, poor fit]
O=C(c1ccc(NC2=NC3CS(=O)(=O)CC3S2)cc1)N1CCc2ccccc2C1 (stereo unspecified)	inconclusive [inhibitor, partial curve, poor fit]
O=C(Nc1nnc(-c2ccccc2F)s1)c1cccnc1	inactive
CC(C)(C)c1ccc(C(=O)Nc2sc3c(c2C(=O)O)CCC3)cc1	inconclusive [inhibitor, single point]
CCCc1nnc(NC(=O)CN2C(=O)c3ccccc3S2(=O)=O)s1	inconclusive [inhibitor, full curve]
Nc1c(C(=O)c2ccccc2)sc(Nc2ccccc2)c1S(=O)(=O)c1ccccc1	inconclusive [inhibitor, full curve, poor fit]
COc1ccc(C(=O)NN2CC(O)=C(c3nc4ccccc4n3C)C2=N)cc1OC	inconclusive [inhibitor, full curve, poor fit]
CCOC(=O)N1CC=C2C(C#N)=C(N)C(C#N)(C#N)[C@H](c3ccccc3OCC)[C@H]2C1	inconclusive [inhibitor, full curve, poor fit]
CC(C)C(=O)NNC(=O)CSc1ncnc2c1cnn2-c1ccccc1Cl	inactive
O=C(Nc1ccccc1C(=O)NC1CCCC1)NC1CCCC1	inconclusive [inhibitor, full curve, poor fit]
Cc1nc2scc(-c3ccco3)c2c(=O)n1/N=C/N(C)C	inconclusive [inhibitor, full curve, poor fit]
COc1cc(C(=O)n2nc(C)cc2C)ccc1O	inconclusive [inhibitor, full curve, poor fit]
O=C(Cn1c2ccccc2c(=O)c2ccccc21)N/N=C/c1ccc(N2CCCC2)c([N+](=O)[O-])c1	inconclusive [inhibitor, single point]
Cc1ccc(NS(=O)(=O)c2ccc(OCC(=O)NCc3ccncc3)cc2)cc1	inconclusive [inhibitor, single point]
COc1cc(OC)cc(C(=O)Nc2ccc(S(=O)(=O)N(C)C)cc2)c1	inconclusive [inhibitor, full curve, poor fit]
C[C@@H]1CN(C(=O)c2ccc(OC3CCN(S(=O)(=O)N(C)C)CC3)cc2)C[C@H](C)O1	inactive
Cc1ccc(-c2cc(C#N)c(=O)n(Cc3c(Cl)cccc3Cl)c2)cc1	inactive
COc1ccc(S(=O)(=O)Nc2cc([N+](=O)[O-])ccc2OC)cc1	inconclusive [inhibitor, full curve, poor fit]

Reference: PubChem BioAssay AID485294 (National Center for Advancing Translational Sciences (NCATS), 2010)
